In the supplement of paper PMC4967469:
The IC50 comes from the fitted curve, where viability falls to half of the control; a fit beyond the top or the lowest dose is shown as a bound at that dose. AUC sums up the same curve from the lowest dose to the 256-fold higher top dose; it is 1 without any effect and falls as sensitivity rises. For part of these data: The top dose, if marked as inferred, is not printed in the source and was worked back from the curve model.

What was measured:
Test in all cases: Viability of human cancer cell lines after 72 h of drug (GDSC screen)
AV-951 = compound: COc1cc2nccc(Oc3ccc(NC(=O)Nc4cc(C)on4)c(Cl)c3)c2cc1OC [AV-951]; conditions: top dose 0.128 µM; top dose inferred
Procedure: (§1)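 Human cancer cell lines in 384-well plates, medium with 10% serum, drug for 72 h over a 256-fold dose range (nine 2-fold or five 4-fold steps up to the top dose). Adherent lines were fixed and stained with the nucleic acid dye Syto60, suspension lines read with resazurin; signal relative to control wells, capped at 0 and 100%. One two-parameter sigmoid per drug and line, fitted in a mixed model over all curves with the slope shared within a line.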

I-BET-762 = compound: CCNC(=O)C[C@@H]1N=C(c2ccc(Cl)cc2)c2cc(OC)ccc2-n2c(C)nnc21 [I-BET-762]; conditions: top dose 20 µM; top dose inferred
Procedure: as §1

Trametinib = compound: CC(=O)Nc1cccc(-n2c(=O)n(C3CC3)c(=O)c3c(Nc4ccc(I)cc4F)n(C)c(=O)c(C)c32)c1 [Trametinib]; conditions: top dose 1 µM
Procedure: as §1

HG-6-64-1 = compound: CCN1CCN(Cc2ccc(NC(=O)c3ccc(C)c(/C=C/c4cnc5[nH]ccc5c4OC)c3)cc2C(F)(F)F)CC1 [HG-6-64-1]; conditions: top dose 5.12 µM; top dose inferred
Procedure: as §1

MS-275 = compound: Nc1ccccc1NC(=O)c1ccc(CNC(=O)OCc2cccnc2)cc1 [MS-275]; conditions: top dose 5 µM; top dose inferred
Procedure: as §1

KIN001-244 = compound: O=C(NC(COc1ccc2[nH]c(=O)[nH]c2c1)c1ccccc1)c1cccn(Cc2ccc(F)c(F)c2)c1=O [KIN001-244]; conditions: top dose 20 µM; top dose inferred
Procedure: as §1

PF-4708671 = compound: CCc1cncnc1N1CCN(Cc2nc3ccc(C(F)(F)F)cc3[nH]2)CC1 [PF-4708671]; conditions: top dose 10 µM; top dose inferred
Procedure: as §1

Row | Cell Line | AUC (AV-951) | IC50 (AV-951) [nM] | AUC (I-BET-762) | IC50 (I-BET-762) [nM] | AUC (Trametinib) | IC50 (Trametinib) [nM] | AUC (HG-6-64-1) | IC50 (HG-6-64-1) [nM] | AUC (MS-275) | IC50 (MS-275) [nM] | AUC (KIN001-244) | IC50 (KIN001-244) [nM] | AUC (PF-4708671) | IC50 (PF-4708671) [nM]
1 | 8-MG-BA (glioma, adherent) | 0.98 | > 128 | 0.973 | > 20000 | 0.802 | 457 | 0.406 | 179 | 0.725 | 1300 | 0.85 | 13700 | 0.976 | > 10000
2 | 697 (lymphoblastic leukaemia, suspension) | 0.984 | > 128 | – | – | 0.959 | > 1000 | 0.542 | 408 | 0.305 | 101 | 0.291 | 370 | 0.939 | > 10000
3 | A3-KAW (B-cell lymphoma, suspension) | 0.992 | > 128 | 0.367 | 582 | 0.286 | 18.1 | 0.722 | 1160 | 0.447 | 231 | 0.808 | 7890 | 0.957 | > 10000
4 | A4-Fuk (B-cell lymphoma, suspension) | 0.983 | > 128 | 0.871 | > 20000 | 0.712 | 255 | 0.559 | 466 | 0.644 | 799 | 0.534 | 1560 | 0.975 | > 10000
5 | A101D (melanoma, adherent) | 0.981 | > 128 | 0.917 | > 20000 | 0.237 | 8.89 | 0.539 | 420 | 0.551 | 446 | 0.817 | 14500 | 0.981 | > 10000
6 | A253 (head and neck, adherent) | 0.988 | > 128 | 0.989 | > 20000 | 0.863 | 832 | 0.598 | 588 | 0.913 | > 5000 | 0.932 | > 20000 | – | –
7 | A388 (skin, adherent) | 0.982 | > 128 | 0.983 | > 20000 | 0.888 | > 1000 | 0.877 | > 5120 | 0.733 | 1620 | 0.859 | > 20000 | 0.946 | > 10000
8 | ALL-PO (lymphoblastic leukaemia, suspension) | 0.983 | > 128 | 0.438 | 837 | 0.978 | > 1000 | 0.558 | 466 | 0.258 | 60.6 | 0.591 | 2260 | 0.777 | 4250
9 | ALL-SIL (T-cell leukaemia, suspension) | 0.62 | 16.2 | 0.709 | 4400 | 0.913 | > 1000 | 0.047 | < 20 | 0.414 | 188 | 0.611 | 2410 | – | –
